Test results published in PubChem BioAssay AID686979 (National Center for Advancing Translational Sciences (NCATS), 2013).
Several values for one entry are separate records, joined by “and”; a condition that tells them apart may be missing. Equal values may be shown once. The whole screen tested about 420,000 compounds, of which about 50,000 (12%) were called active. The shares of active, inactive and inconclusive entries below differ from those in the screen. Calls follow the shape of the dose curve; as a rule, active = well fitted inhibition curve with a large enough effect; inconclusive = small, poorly fitted or top-dose-only effect; inactive = flat fitted curve, though single readings scatter. No potency is given beside an inconclusive call; the fits are too rough.

Test: qHTS for Inhibitors of human tyrosyl-DNA phosphodiesterase 1 (TDP1): qHTS in cells in presence of CPT; also: nearly all actives have a fitted effect of over 55% in size
Conditions: chicken DT40 Tdp1-/-;hTDP1 cells + 20 nM CPT, ATP luminescence, 48 h; series mostly up to 46.2 µM
Summary of the method: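 Chicken DT40 Tdp1-/- cells complemented with human TDP1, 400 cells/well, exposed to compounds plus 20 nM camptothecin for at least 48 h at 37 C; viability read as ATP content by CellTiter-Glo luminescence.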
Potency is read from the fitted curve at half-maximal effect; tags tell the direction and shape of the fitted curve.

For O=C(c1cccc2ccccc12)C1CCCN(Cc2ccon2)C1 (configuration not stated), which Potency is on record?
Its Potency is inconclusive [inhibitor, single point].

With CC1CCCCN1CC(O)c1c[nH]c2ccccc12 (configuration not stated) as the compound, how does the Potency read?
Its Potency is “inactive”.

Which Potency does the source give for CCN(CC)c1ccc(N=Cc2c(O)n(-c3ccc(OC)cc3)c(=O)[nH]c2=O)cc1 here?
Its Potency is inconclusive [inhibitor, partial curve].

With c1ccc(CN2CCCC3(CCNCC3)C2)cc1 as the compound, how does the Potency read?
The Potency was inconclusive [inhibitor, single point].

With COc1ccc(CNCCc2c[nH]c3ccccc23)c(OC)c1OC as the compound, how does the Potency read?
The Potency was active: 16.4 µM.

Which Potency does the source give for COc1cccc(-c2ccc(O)c(CNC3CN4CCC3CC4)c2)n1 (configuration not stated) here?
Its Potency is inconclusive [inhibitor, single point].

Which Potency does the source give for O=C1NCN(c2ccccc2)C12CCN(C(c1ccccc1)c1nnnn1-c1ccc3c(c1)OCCO3)CC2 (configuration not stated) here?
Its Potency is inconclusive [inhibitor, single point].

With CCOC(C(=O)OCCCN(CC)CC)(c1ccccc1)c1ccccc1 as the compound, how does the Potency read?
The Potency was “inactive”.

With COc1ccc(-n2nnnc2C(c2cccc(OC)c2OC)N2CCC(n3c(=O)[nH]c4ccccc43)CC2)cc1 (configuration not stated) as the compound, how does the Potency read?
Its Potency is active: 8.2 µM.

With CC(C)(C)NCc1cccn1-c1sc2c(c1C#N)CCCC2 as the compound, how does the Potency read?
The Potency was inconclusive [inhibitor, full curve, poor fit].

Which Potency does the source give for CC(C)Cc1nnc(NC(=O)CCC(=O)N2CCN(CCOC(c3ccccc3)c3ccccc3)CC2)s1 here?
The Potency was inconclusive [inhibitor, single point].

With CC(CC(C)(C)N1CC1)=NNC(=O)Nc1cccc2ccccc12 as the compound, how does the Potency read?
Its Potency is active: 3.66 µM.

With COc1ccc(C(C)=O)cc1CC(C(=O)c1ccc(Br)cc1)N(C)C (configuration not stated) as the compound, how does the Potency read?
The Potency was “inactive”.

For CCCCOc1nc2ccccc2c(=O)n1-c1ccccc1, which Potency is on record?
Its Potency is inconclusive [inhibitor, single point].

With O=c1ccc2cc3ccoc3c(O)c2o1 as the compound, how does the Potency read?
The Potency was “inactive”.

For CCN(CC)C(=O)Oc1ccc(Br)cc1C(=O)Nc1ccc(F)c(Cl)c1, which Potency is on record?
Its Potency is inconclusive [inhibitor, single point].

Which Potency does the source give for CCC(COC(=O)NC)NC(=O)Oc1cccc(C)c1 (configuration not stated) here?
Its Potency is “inactive”.

Which Potency does the source give for COc1cc2c(cc1OC)[C@@H]1C(=O)c3ccc4c(c3O[C@@H]1CO2)C[C@H](C(C)C)O4 here?
The Potency was active: 0.259 µM.

Which Potency does the source give for CCN(CC)c1ccccc1 here?
The Potency was “inactive”.

With COc1ccc(Cl)cc1NC(=O)CSc1ncnc2c1oc1ccccc12 as the compound, how does the Potency read?
Its Potency is inconclusive [inhibitor, single point].

Which Potency does the source give for CN(C)c1ccc(/C=C/[N+](=O)[O-])cc1 here?
Its Potency is inconclusive [inhibitor, single point].

Which Potency does the source give for O=c1c2ccccc2nc(-c2ccco2)n1-c1ccc(Br)cn1 here?
Its Potency is inconclusive [inhibitor, single point].

With Clc1cccc(Cl)c1Cl as the compound, how does the Potency read?
Its Potency is “inactive”.

With COc1ccc(-c2cc(C(=O)N3CCC4(CC3)OCCO4)c3ccccc3n2)cc1 as the compound, how does the Potency read?
Its Potency is inconclusive [inhibitor, single point].

With NC(CCP(=O)(O)O)C(=O)O (configuration not stated) as the compound, how does the Potency read?
Its Potency is inconclusive [inhibitor, single point].

With CCn1c(CN2CCN(C)CC2)nc2ccccc21 as the compound, how does the Potency read?
The Potency was “inactive”.

With COCCCNC(=O)Cn1cc(/C=C2\C(=O)NC(=O)N(c3ccccc3F)C2=O)c2ccccc21 as the compound, how does the Potency read?
Its Potency is inconclusive [inhibitor, full curve, poor fit].

For CN(C)CCN(CC1CCCN(Cc2ccccc2F)C1)C(=O)Cc1ccccc1F (configuration not stated), which Potency is on record?
Its Potency is inconclusive [inhibitor, full curve].

With Cc1ccccc1NC1(C#N)CCCCC1 as the compound, how does the Potency read?
The Potency was “inactive”.

For CN1[C@@H]2CC[C@H]1CC(OC(=O)c1cc(Cl)cc(Cl)c1)C2 (some centres not stated), which Potency is on record?
Its Potency is active: 18.8 µM.

With Cc1ccc2c(c1)N(CCC(=O)N1CCC3(CC1)OCCO3)C(=O)C(C)O2 (configuration not stated) as the compound, how does the Potency read?
Its Potency is “inactive”.

For O=c1c2ccccc2nc(N2CCCC2)n1-c1ccccc1, which Potency is on record?
The Potency was inconclusive [inhibitor, single point].

Which Potency does the source give for C=C(C)[C@@H]1C2C(=O)O[C@H]1[C@H]1OC(=O)[C@@]34OC3C[C@]2(O)[C@@]14C (some centres not stated) here?
The Potency was inconclusive [inhibitor, single point].

Which Potency does the source give for CN(C)c1ccc(/C=C2\C(=O)NC(=O)N(CCc3ccc(F)cc3)C2=O)cc1 here?
The Potency was “inactive”.

For CCOC(=O)[C@]12Cc3cc(Cl)ccc3[C@H]1N(C)C(=O)c1cc(OC)ccc12, which Potency is on record?
The Potency was active: 23.1 µM.

Which Potency does the source give for O=C1Nc2ccccc2C1Cc1nc2ccccc2c(=O)n1-c1ccccc1 (configuration not stated) here?
The Potency was inconclusive [inhibitor, single point].

For O=c1[nH]c(=O)n(Cc2ccco2)c(O)c1C=NC1CCN(Cc2ccccc2)CC1, which Potency is on record?
The Potency was inconclusive [inhibitor, full curve, poor fit].

With CC(=O)CCc1ccccc1 as the compound, how does the Potency read?
Its Potency is “inactive”.

For COCCNC(=O)c1c(N)n(CCC(C)C)c2nc3ccccc3nc12, which Potency is on record?
Its Potency is active: 11.6 µM.

For COc1ccc(NC(=S)N2Cc3ccccc3-n3nncc3C2)c(OC)c1, which Potency is on record?
Its Potency is inconclusive [inhibitor, single point].

With Cn1c(=O)cc(OCC(=O)N2CCN(C3CCCCC3)CC2)c2ccccc21 as the compound, how does the Potency read?
Its Potency is “inactive”.

Which Potency does the source give for O=C(NCCN1CCOCC1)c1ccc(Cl)nc1Cl here?
Its Potency is “inactive”.

With COc1ccc(CNCCc2c(C)[nH]c3ccc(OC(F)(F)F)cc23)c(OC)c1 as the compound, how does the Potency read?
The Potency was active: 4.61 µM.

For CCNC(=O)NC(=O)C(C)OC(=O)c1c(C)nn(Cc2ccccc2)c1Cl (configuration not stated), which Potency is on record?
The Potency was “inactive”.

For CCCCCN1C(=O)c2ccccc2[C@@]2(C(=O)OCC)Cc3cc(OC)ccc3[C@@H]12, which Potency is on record?
The Potency was active: 7.31 µM.

Which Potency does the source give for c1cncc([C@@H]2CCCCN2)c1 here?
The Potency was inconclusive [inhibitor, partial curve, poor fit].

With CCOc1ccc2nc(N3CCC(C(=O)N4CCC5(CC4)OCCO5)CC3)sc2c1 as the compound, how does the Potency read?
The Potency was inconclusive [inhibitor, partial curve, poor fit].

Which Potency does the source give for CCCCCCC(Cl)(Cn1ccnc1)c1ccccc1 (configuration not stated) here?
Its Potency is inconclusive [inhibitor, single point].

Which Potency does the source give for O=[N+]([O-])c1ccc(NC2CCN(Cc3ccccc3)CC2)c2ccncc12 here?
Its Potency is inconclusive [inhibitor, single point].

For Cc1ccnc(-n2c(-c3ccco3)nc3ccccc3c2=O)c1, which Potency is on record?
Its Potency is “inactive”.

Which Potency does the source give for CCCSc1ncc(Cl)c(C(=O)N(Cc2ccccc2)c2ccc(OC)cc2)n1 here?
The Potency was active: 7.31 µM.

For C[C@]12O[C@H](C[C@]1(O)CO)n1c3ccccc3c3c4c(c5c6ccccc6n2c5c31)CNC4=O, which Potency is on record?
The Potency was active: 0.299 µM.

With COc1cc(C)cc(CN2CC=C(c3ccccc3)CC2)c1O as the compound, how does the Potency read?
Its Potency is active: 16.4 µM.

For Oc1ccc2c3c1O[C@H]1[C@@H](O)C=C[C@H]4[C@H](C2)NCC[C@@]341, which Potency is on record?
Its Potency is “inactive”.

With Cc1cccc2c(CCN)c[nH]c12 as the compound, how does the Potency read?
The Potency was inconclusive [inhibitor, partial curve].

For CN1Cc2ccccc2-n2nncc2C1, which Potency is on record?
The Potency was “inactive”.

For COC1C(C)OC(OC2CC(C)(O)Cc3cc4c(c(O)c32)C(=O)c2c(O)cc3c(c2C4=O)OC2OC3(C)C(O)C(N(C)C)C2O)C(OC)C1(C)OC (configuration not stated), which Potency is on record?
The Potency was active: 0.082 µM.

For CCOC(=O)c1c(C)n(COCCO)c2ccc(O)cc12, which Potency is on record?
The Potency was “inactive”.

With COc1ccc(OC)c(CN2CCCC(C(=O)c3sccc3C)C2)c1 (configuration not stated) as the compound, how does the Potency read?
Its Potency is inconclusive [inhibitor, single point].

For COC(=O)C1=C(c2ccc(F)cc2F)C[C@@H]2CC[C@H]1N2C(=O)N1CCCC1, which Potency is on record?
The Potency was inconclusive [inhibitor, single point].

Which Potency does the source give for CN1C(=O)c2ccccc2Sc2ccc(NC(=O)NCc3ccc(Cl)cc3)cc21 here?
The Potency was active: 23.1 µM.

With COc1cc2c(c(OC)c1OC)-c1ccc(O)c(=O)cc1C(NC(C)=O)CC2 (configuration not stated) as the compound, how does the Potency read?
The Potency was active: 5.8 µM and active: 25.9 nM.

With Cc1cccc(CN2C(=O)CN=C(c3ccccc3Cl)c3cc(Cl)ccc32)c1 as the compound, how does the Potency read?
Its Potency is active: 23.1 µM.

For CCOP(=O)(Cc1ccccc1)OCC, which Potency is on record?
The Potency was “inactive”.

With Clc1ccc(Cl)cc1 as the compound, how does the Potency read?
The Potency was “inactive”.

For O=[N+]([O-])c1cc2c(cc1CNCCc1ccc3c(c1)OCO3)OCO2, which Potency is on record?
The Potency was inconclusive [inhibitor, single point].

With O=C1NC(=S)N(c2ccc(F)cc2)C(=O)/C1=C/c1ccccc1O as the compound, how does the Potency read?
Its Potency is inconclusive [inhibitor, single point].

For COC(=O)C1=C(c2ccccc2OCc2ccccc2)C[C@@H]2CC[C@H]1N2C(=O)NCc1ccc(Cl)cc1, which Potency is on record?
Its Potency is inconclusive [inhibitor, single point].

With CN(C)c1nc(N(C)C)nc(N(C#N)CCCl)n1 as the compound, how does the Potency read?
The Potency was “inactive”.

For COc1ccc(C(=O)CC2(CC(=O)c3ccc(OC)cc3)C(=O)N(C)C(=O)N(C)C2=O)cc1, which Potency is on record?
The Potency was “inactive”.

Which Potency does the source give for S=C(NCCc1ccccc1)N1Cc2ccccc2-n2nncc2C1 here?
Its Potency is inconclusive [inhibitor, single point].

With Cn1ccc(NC(=O)CCl)n1 as the compound, how does the Potency read?
The Potency was inconclusive [inhibitor, single point].

With COC(=O)c1ccc(N2C(=O)CC(N3CCC(n4c(=O)[nH]c5ccccc54)CC3)C2=O)cc1 (configuration not stated) as the compound, how does the Potency read?
Its Potency is inconclusive [inhibitor, single point].

Which Potency does the source give for C/C=C1/C[C@@H](C)[C@](O)(CO)C(=O)OCC2=CCN3CC[C@@H](OC1=O)[C@@H]23 here?
Its Potency is inconclusive [inhibitor, partial curve, poor fit].

With COc1ccc(OCC(=O)N2CCCC(N3CCN(c4ccccc4C)CC3)C2)cc1 (configuration not stated) as the compound, how does the Potency read?
Its Potency is active: 16.4 µM.

With CCOC(=O)CNC(=O)N1Cc2ccccc2-n2nncc2C1 as the compound, how does the Potency read?
The Potency was “inactive”.

With CCOC(=O)C1(CCOc2ccccc2)CCN(Cc2cccc(O)c2)CC1 as the compound, how does the Potency read?
The Potency was inconclusive [inhibitor, single point].
